Data published in publication PMC4336329 (PLoS ONE, 2015).
About 14,000 (4.5%) of roughly 310,000 compounds showed an effect of 50% or more. The effect is printed as a negative number. The list shows a part of the results.

target: human ether-à-go-go-related gene (hERG) potassium channel (human, UniProt Q12809); assay: primary screen, population patch clamp on CHO cells stably expressing hERG
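Also: peak tail current of the secondary pulse compared with the same well before compound.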

Chain of human ether-à-go-go-related gene (hERG) potassium channel (Q12809 whole entry, looked up): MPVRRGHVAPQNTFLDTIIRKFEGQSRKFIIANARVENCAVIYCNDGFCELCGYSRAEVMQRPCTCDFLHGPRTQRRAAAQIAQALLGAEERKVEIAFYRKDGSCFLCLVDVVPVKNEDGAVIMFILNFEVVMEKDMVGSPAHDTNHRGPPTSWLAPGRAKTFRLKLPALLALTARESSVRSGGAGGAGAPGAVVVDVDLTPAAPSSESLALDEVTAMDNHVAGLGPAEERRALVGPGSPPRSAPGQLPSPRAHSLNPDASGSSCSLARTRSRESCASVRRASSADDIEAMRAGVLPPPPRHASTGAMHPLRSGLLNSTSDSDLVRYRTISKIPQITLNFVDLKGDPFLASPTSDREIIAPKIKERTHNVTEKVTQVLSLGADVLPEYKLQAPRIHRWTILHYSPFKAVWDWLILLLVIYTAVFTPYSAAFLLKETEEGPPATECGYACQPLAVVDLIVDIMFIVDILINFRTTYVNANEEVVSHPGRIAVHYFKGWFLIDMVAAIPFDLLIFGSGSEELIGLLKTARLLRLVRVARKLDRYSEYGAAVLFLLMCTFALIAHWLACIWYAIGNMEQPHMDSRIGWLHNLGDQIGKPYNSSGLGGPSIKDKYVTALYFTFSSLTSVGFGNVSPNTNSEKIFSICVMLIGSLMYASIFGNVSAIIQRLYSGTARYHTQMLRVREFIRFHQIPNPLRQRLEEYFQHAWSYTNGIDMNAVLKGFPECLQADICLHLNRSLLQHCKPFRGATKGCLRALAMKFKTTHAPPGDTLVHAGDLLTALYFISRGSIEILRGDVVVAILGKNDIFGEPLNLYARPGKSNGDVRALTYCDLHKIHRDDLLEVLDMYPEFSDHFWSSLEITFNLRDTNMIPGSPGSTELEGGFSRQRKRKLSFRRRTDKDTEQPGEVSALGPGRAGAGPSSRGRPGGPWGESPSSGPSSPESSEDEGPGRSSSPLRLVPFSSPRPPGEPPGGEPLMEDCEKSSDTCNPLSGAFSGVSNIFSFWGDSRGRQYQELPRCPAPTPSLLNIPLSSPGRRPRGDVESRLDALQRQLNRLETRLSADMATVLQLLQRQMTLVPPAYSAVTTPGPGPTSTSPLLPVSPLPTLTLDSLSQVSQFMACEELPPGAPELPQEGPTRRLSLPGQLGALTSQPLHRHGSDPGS

Row | SMILES | hERG current change (%, negative = inhibition) at 10uM
1 | CNc1ccccc1C(C)(C)c1cc(-c2cccc([N+](=O)[O-])c2)no1 | 8.04%
2 | COc1ccc(OCC(=O)NS(=O)(=O)c2ccc(Cl)cc2)cc1 | 22.6%
3 | CCCCCC(=O)N/N=C/c1ccc(N(C)C)cc1 | -19.2%
4 | Cc1ccccc1NC(=O)CN1CCN(Cc2ccccc2)CC1 | -36.1%
5 | O=C(CSc1nc2c(cnn2-c2ccc(F)cc2)c(=O)[nH]1)Nc1nccs1 | 4.54%
6 | CN1C(=O)CC(N2CCC(C(N)=O)CC2)C1=O (stereo not drawn) | 4.5%
7 | COc1ccc(-c2nnnn2C)cc1S(=O)(=O)NCCc1ccccc1 | -2.23%
8 | CC(C)N(C(=O)CN1C(=O)C(=O)c2ccccc21)c1ccccc1 | 3.08%
9 | Cc1cccc(/C=c2\s/c(=C\C(=O)C(C)(C)C)[nH]c2=O)c1 | 13.2%
10 | Oc1ccc2ccc3[nH]cnc3c2c1 | 6.36%
11 | O=C(COC(=O)/C=C/c1cccc(C(F)(F)F)c1)Nc1cccc2ccccc12 | 2.84%
12 | CCN(CC)CCN(C(=O)c1ccc(S(=O)(=O)N(C)C2CCCCC2)cc1)c1nc2c(C)cccc2s1.Cl | -13.9%
13 | CCC1NC(=O)c2ccccc2N1c1cccc(Cl)c1 (stereo not drawn) | -12.6%
14 | CCOc1ccccc1N=Cc1c(O)c2ccccc2oc1=O | 15.4%
15 | COc1cc(/C=C(\C#N)C(=O)Nc2ccc3ccccc3c2)c([N+](=O)[O-])cc1OC | 8.14%
16 | COC(=O)CCCC(NC(=S)N1CC2C[C@@H](C1)Cn1c2cccc1=O)C(=O)OC (stereo partly drawn) | 8.56%
17 | CCN(CC)CC(C)OC(=O)c1ccccc1Cl (stereo not drawn) | 20.6%
18 | O=C1Nc2ccccc2Oc2cc([N+](=O)[O-])cc(Oc3ccccc3)c21 | -24.5%
19 | Cc1ccc(C)c(N2CCN(c3ncccc3[N+](=O)[O-])CC2)c1 | 2.42%
20 | O=C(N/N=C/c1ccc(OC(=O)c2ccccc2Cl)cc1)c1ccccn1 | 4.78%
21 | Cc1ccc(Cn2c(CN3CCOCC3)nc3c2c(=O)[nH]c(=O)n3C)cc1 | -21%
22 | Cc1cc(C)n(CC(C)NC(=O)c2cc(COc3c(F)cccc3F)on2)n1 (stereo not drawn) | 1.49%

Row | SMILES | hERG current change (%, negative = inhibition) at 10uM
23 | CCOC(=O)c1ccc(COC(=O)c2ccc3c(c2)-c2ccccc2C3=O)cc1 | 7.04%
24 | Nc1ncc([N+](=O)[O-])s1 | 19.6%
25 | CC1CCC2(CC1)NC(=O)N(CC(=O)Nc1cccc(S(=O)(=O)N3CCOCC3)c1)C2=O (stereo not drawn) | 1.07%
26 | CCN(CC)C(=O)Cn1cc(SCC(=O)Nc2cc(C)on2)c2ccccc21 | -0.579%
27 | CCc1ccc(OCC(=O)Nc2ccc3c(c2)COC3=O)cc1 | -14.2%
28 | O=C1CCC(=O)N1c1ccc(-c2nc3ccccc3s2)cc1 | 16%
29 | Cc1ccc(CNS(=O)(=O)c2ccc3c(c2)CCN3C(=O)CCCC(=O)O)cc1 | -8.37%
30 | COc1cc(C2=NOC(C(=O)NCc3ccco3)C2)cc(OC)c1OC (stereo not drawn) | -6.37%
31 | Cc1ccc(-c2cc3nc(-c4ccc(Br)cc4)cc(N)n3n2)cc1 | -8.51%
32 | O=C(NC1CC2CCCC(C1)N2Cc1ccccc1)c1cccc(F)c1 (stereo not drawn) | -56.8%
33 | COc1ccc(Cl)cc1NC(=O)c1ccccc1C | -4.07%
34 | COc1ccc(NC(=O)CSc2ccc3nnc(-c4ccccn4)n3n2)cc1 | -20.9%
35 | CCc1cc2ccc(C)cc2nc1SCC(=O)Nc1cc(C)on1 | 21.4%
36 | CN(C)/C=C/C(=O)c1ccc(Oc2ncccn2)cc1 | 45%
37 | COC(=O)c1cccnc1-n1c(=O)c2cccnc2n(CC(=O)Nc2ccc(Br)cc2)c1=O | 6.72%
38 | CCN(CC)C(=S)Nc1ccc2nc3n(c(=O)c2c1)CCCCC3 | -21.8%
39 | CNc1ncc(-c2nnnn2-c2ccccc2)c(-c2ccccc2)n1 | -16.7%
40 | COc1ccc(N(CC(=O)N2c3ccccc3CC2C)S(=O)(=O)c2c(C)noc2C)cc1 (stereo not drawn) | 4.65%
41 | COc1cc2c(cc1NC(=O)CSc1nnc(Cc3cccs3)n1Cc1ccco1)oc1ccccc12 | 5.88%
42 | CC1CCN(C(=O)Cn2c(=O)oc3ccccc32)CC1 | -2.09%
43 | NC(=O)[C@@H]1CCOc2c(F)cc([N+](=O)[O-])cc2C(=O)N[C@@H](CO)C(=O)NCC(=O)N1 | 11.1%
44 | CC(C)(C)c1ccc(OCC(=O)N2CCCCCC2)c(Br)c1 | -11.9%

Row | SMILES | hERG current change (%, negative = inhibition) at 10uM
45 | COc1ccc(-c2c(C)nn3c(-c4ccccc4)cc(C)nc23)cc1 | -13.3%
46 | CCCN1CCN(CCCNC(=O)C2CCN(c3nnc(-n4c(C)ccc4C)s3)CC2)CC1 | -9.76%
47 | COC(=O)N(C)c1ccccc1C(=O)N1CCOCC1 | -0.159%
48 | O=c1nccc(NCc2ccco2)[nH]1 | -5.68%
49 | O=C1N/C(=N\N=C\c2cccs2)SC1Cc1cccc(Cl)c1Cl (stereo not drawn) | 4.64%
50 | COc1ccc(OCC(=O)Nc2nccs2)cc1 | -1.31%
51 | CN1CCN(C(=O)CCN2C(=O)S/C(=C/c3ccc(Cl)cc3)C2=O)CC1 | -35.3%
52 | O=C(NNC(=S)NC(=O)c1ccccc1[N+](=O)[O-])c1ccccc1Cl | 6.38%
53 | C/C(=N/NC(=O)c1cn(-c2cccc(C)n2)cn1)c1ccc(C)cc1 | -0.713%
54 | COC(=O)c1ccc(/C=N/Nc2nc(-c3ccc(C)cc3)cs2)cc1 | 4.82%
55 | C=CCN(c1nc(C)cc(OC)n1)S(=O)(=O)c1ccc(C)cc1 | 5.17%
56 | Nc1[nH]n(-c2ccccc2)c(=O)c1N=Nc1ccc2ncsc2c1 | 4.05%
57 | CCCCNC(=O)c1nc2ncc(Br)cn2n1 | -21%
58 | S=C(NC1CC1)NC1CCCc2ccccc21 (stereo not drawn) | 6.39%
59 | CCCCn1c(SCC(=O)NCc2ccco2)nc2c(sc3ccccc32)c1=O | -16.8%
60 | CCCN(C(=O)COC(=O)CC1CCCCC1)c1c(N)n(Cc2ccccc2)c(=O)[nH]c1=O | 8.64%
61 | CCN1CC2([N+](=O)[O-])C=CC(=O)C([N+](=O)[O-])(C1)C2CC(=O)c1ccccc1 (stereo not drawn) | 11.2%
62 | CN(Cc1ccccc1)S(=O)(=O)c1ccc2c(c1)CCC(=O)N2 | 12%
63 | C/C=C(/C)C(=O)O[C@H]1[C@@H](O)c2c(ccc3ccc(=O)oc23)OC1(C)C | 3.92%
64 | O=C(CS(=O)(=O)c1ccccc1)Nc1ccc(N2CCOCC2)cc1 | 30%
65 | CCOC(=O)c1ccc(NC(=O)Nc2ccc3c(c2)OCCO3)cc1 | 10.6%
66 | Cc1ccc(-n2nc(C(=O)O)nc2-c2ccccc2)cc1 | 6.5%

Row | SMILES | hERG current change (%, negative = inhibition) at 10uM
67 | Cc1ccc(SCCc2cc[n+](CC(=O)c3ccccc3)cc2)cc1 | -70.5%
68 | COc1cc(C2CC(=O)Oc3c(C(CCN4CCOCC4)c4ccc(N(C)C)cc4)c(OC)cc(OC)c32)cc(OC)c1OC (stereo not drawn) | -10.8%
69 | COc1ccccc1OCCCCn1c(C(C)O)nc2ccccc21 (stereo not drawn) | -2.64%
70 | CCOc1ccc(NC(=O)N2CCCC2C(=O)NCc2ccco2)cc1 (stereo not drawn) | 11.4%
71 | CC(C)(C)C(=O)N1CCCC1C(=O)O (stereo not drawn) | 8.61%
72 | CCC(=O)Nc1ccc(Oc2ccc3c(c2)C(=O)N(c2ccc(O)cc2)C3=O)cc1 | 22.9%
73 | CNC(=S)/N=C(/Nc1ccccc1)c1ccccc1 | -3.18%
74 | O=C1CCC(/C=C/c2ccccc2)=NN1Cc1ccccc1 | -3.3%
75 | COc1ccc(/C(N)=N/OC(=O)c2cccc([N+](=O)[O-])c2)cc1OC | -14.8%
76 | CN(C)c1c(N)c(=O)oc2ccccc12 | 29.4%
77 | COC(=O)C1CCN(C(=O)COC(=O)c2ccc(OC)c(S(=O)(=O)N3CCCc4ccccc43)c2)CC1 | -45.7%
78 | Cc1cc(=O)[nH]c(-n2ncc(C#N)c2N)n1 | 33.9%
79 | COc1ccc([N+](=O)[O-])cc1NC(=O)C(C)OC(=O)CSC(C)C(=O)Nc1cc(C)on1 (stereo not drawn) | -28.2%
80 | Cc1cc(OCC(O)CNC(C)c2ccccc2)ccc1C(C)C.Cl (stereo not drawn) | -26%
81 | CNC(=S)N(Cc1ccc(Cl)cc1)Cc1cccs1 | -38.5%
82 | CC(C)c1ccc(C(CC(=O)O)NC(=O)c2cccs2)cc1 (stereo not drawn) | 27.2%
83 | CN(c1ccc(C(=O)N2CCN(Cc3ccc4c(c3)OCO4)CC2)cc1)S(=O)(=O)c1ccccc1 | -38.3%
84 | NC(=O)CC[C@@H]1NC(=O)[C@@H]2CCCN2C(=O)c2cc([N+](=O)[O-])cc(I)c2NCCCC[C@@H](C(=O)NC(CC(=O)O)C(N)=O)NC1=O (stereo partly drawn) | -16.4%
85 | Cc1ccc(NC(=S)NCCO)c(C)c1 | 9.15%
86 | Cc1c(C)c2c(OCC(=O)NCC(=O)NCC(=O)O)cc3c(c2oc1=O)CCC(C)(C)O3 | 15.2%
87 | O=C(Cn1ccc([N+](=O)[O-])n1)NCc1ccccc1 | 9.94%
